Among the data in PubChem BioAssay AID206 (DTP/NCI, 2004) are T/C values, retold here.

Records with an inconclusive call do not appear. The source holds more than one record for some entries. The list is limited to them. The source may hold further records. Values given together are repeats in other runs, samples, wells, individuals or studies.

For this assay, the system named is nude mice, HT29 intrarenal xenograft, tumor weight T/C. As to the kind of experiment: NCI In Vivo Anticancer Drug Screen. Data for tumor model HT29;CX-1 Human Adenocarcinoma (MER+) (intrarenal inoculation) in NU/NU Swiss (nude) mice. As to conditions: endpoint: mean tumor weight change, higher = larger tumour. As for the experimental part: The antitumor activity of compounds was measured in mice bearing transplantable tumors. Survival or tumor size were measured and the results are expressed as the measurement made in the treated group (T) divided by the measurement made in the vehicle treated control group (C). The tumor model used in this assay is HT29;CX-1 Human Adenocarcinoma (MER+) (intrarenal inoculation) in NU/NU Swiss (nude) mice

The mark [1] stands for this setting: dose: 75.0 mg/kg/injection, schedule: Q04DX004 (sc), vehicle: saline with Tween-80.
Where [2] appears, read: dose: 600.0 mg/kg/injection, schedule: Q04DX004 (sc), vehicle: saline with Tween-80.
Setting [3] is: dose: 150.0 mg/kg/injection, schedule: Q04DX004 (sc), vehicle: saline with Tween-80.

For the compound `COC(=O)C(F)C(Br)C(=O)OC` (configuration not stated), under setting [1], the T/C is 63 % of control and 295 % of control.
On to `OC(CBr)C(O)C(O)C(O)CBr` (configuration not stated), for which, for the setting “dose: 60.0 mg/kg/injection, schedule: Q01DX010 (sc), vehicle: Klucel (hydroxypropylcellulose) (HPC)”, the T/C is 34 % of control and 116 % of control.
As to `CCCCCCCCCCCCCCCCCC(=O)Nc1ccn(C2OC(CO)C(O)C2O)c(=O)n1` (configuration not stated), the T/C under setting [2] was 3 % of control and 53 % of control.
Turning to `CCCCCCCCCCCCCCCC(=O)OCC1OC(n2ccc(N)nc2=O)C(O)C1O` (configuration not stated), the T/C (dose: 37.5 mg/kg/injection, schedule: Q04DX004 (sc), vehicle: saline with Tween-80) is 38 % of control and 79 % of control.
`Clc1ccc(CN2COc3c(ccc4cccnc34)C2)cc1Cl`: the T/C by setting is: (dose: 200.0 mg/kg/injection, schedule: Q01DX010 (sc), vehicle: saline with Tween-80) 80 % of control, 113 % of control, 182 % of control; (dose: 800.0 mg/kg/injection, schedule: Q01DX010 (sc), vehicle: saline with Tween-80) 11 % of control, 50 % of control, 53 % of control; (dose: 1600.0 mg/kg/injection, schedule: Q01DX010 (sc), vehicle: saline with Tween-80) 41 % of control and 71 % of control.
As to `BrC1c2cccc3cccc(c23)C1Br` (configuration not stated), the T/C under setting [2] was 68 % of control and 109 % of control.
As for `COC(=O)[C@@]12OC[C@]34[C@H]([C@@H](O)[C@@H]1O)[C@@]1(C)CC(=O)C(O)=C(C)[C@@H]1C[C@H]3OC(=O)[C@H](OC(=O)/C=C(\C)C(C)C)[C@@H]24`, the T/C (dose: 0.5 mg/kg/injection, schedule: Q04DX004 (sc), vehicle: saline + alcohol) is 89 % of control and 119 % of control.
For the compound `O=c1[nH]cc(F)c(=O)[nH]1`, the T/C (dose: 10.0 mg/kg/injection, schedule: Q01DX010 (sc), vehicle: saline) is 59 % of control and 112 % of control.
For the compound `CN(C)N=Nc1cccc(C(N)=O)c1`, the T/C reads like this: (dose: 25.0 mg/kg/injection, schedule: Q04DX004 (sc), vehicle: Klucel (hydroxypropylcellulose) (HPC)) 72 % of control and 115 % of control; (dose: 100.0 mg/kg/injection, schedule: Q04DX004 (sc), vehicle: Klucel (hydroxypropylcellulose) (HPC)) 18 % of control and 102 % of control.
For the compound `COc1cccc2c1C(=N)c1c(O)c3c(c(O)c1C2=O)C[C@@](O)(C(C)=O)C[C@@H]3OC1CC(N)C(O)C(C)O1` (some centres not stated), the T/C is 99 % of control and 179 % of control (dose: 5.0 mg/kg/injection, schedule: Q04DX004 (sc), vehicle: water); 8 % of control, 78 % of control, 195 % of control (dose: 20.0 mg/kg/injection, schedule: Q04DX004 (sc), vehicle: water).
Consider `CNNCc1ccc(C(=O)NC(C)C)cc1`, for which the T/C was 25 % of control, 40 % of control, 89 % of control (dose: 100.0 mg/kg/injection, schedule: Q01DX010 (sc), vehicle: saline) and 8 % of control, 41 % of control, 93 % of control (dose: 400.0 mg/kg/injection, schedule: Q01DX010 (sc), vehicle: saline).
For the compound `O=C1C2CC=CCC2C(=O)N1SC(Cl)(Cl)Cl` (configuration not stated), the T/C reads like this: under setting [1], 66 % of control and 120 % of control; under setting [3], 66 % of control and 119 % of control.
Consider `CCCCCCCCCCCCCCCC(=O)Nc1ccn(C2OC(CO)C(O)C2O)c(=O)n1` (configuration not stated), for which the T/C (dose: 112.5 mg/kg/injection, schedule: Q04DX004 (sc), vehicle: water) was 2 % of control, 32 % of control, 70 % of control; the T/C (dose: 225.0 mg/kg/injection, schedule: Q04DX004 (sc), vehicle: water) is -27 % of control, 16 % of control, 25 % of control; the T/C (dose: 450.0 mg/kg/injection, schedule: Q04DX004 (sc), vehicle: water) was -28 % of control and 3 % of control.
Take `C=C1CC2(OC1=O)C(=O)N(C)c1ccc(I)cc12` (configuration not stated): the T/C (dose: 300.0 mg/kg/injection, schedule: Q04DX004 (sc), vehicle: suspension in saline) is 77 % of control and 112 % of control.
Take `Cc1ccccc1N(CC1CO1)CC1CO1` (configuration not stated): the T/C (dose: 400.0 mg/kg/injection, schedule: Q01DX010 (sc), vehicle: suspension in saline) is 21 % of control and 112 % of control.
As for `CO[C@H](C(=O)[C@@H](O)[C@@H](C)O)[C@@H]1Cc2cc3cc(OC4CC(OC5CC(O)C(O)C(C)O5)C(O)C(C)O4)c(C)c(O)c3c(O)c2C(=O)[C@H]1OC1CC(OC2CC(OC3CC(C)(O)C(O)C(C)O3)C(O)C(C)O2)C(O)C(C)O1` (some centres not stated), the T/C runs as follows: (dose: 0.25 mg/kg/injection, schedule: Q01DX010 (sc), vehicle: saline) 63 % of control, 82 % of control, 111 % of control; (dose: 0.5 mg/kg/injection, schedule: Q01DX010 (sc), vehicle: saline) 13 % of control, 55 % of control, 68 % of control; (dose: 0.75 mg/kg/injection, schedule: Q04DX004 (sc), vehicle: saline) 85 % of control and 122 % of control; (dose: 1.0 mg/kg/injection, schedule: Q01DX010 (sc), vehicle: saline) -15 % of control, 37 % of control, 87 % of control; (dose: 1.5 mg/kg/injection, schedule: Q04DX004 (sc), vehicle: saline) 39 % of control and 66 % of control; (dose: 3.0 mg/kg/injection, schedule: Q04DX004 (sc), vehicle: saline) 8 % of control and 58 % of control.
Turning to `O=C1NC2(CCCCC2)C(=O)N1CCN(CCCl)CCCl`, for the setting “dose: 12.0 mg/kg/injection, schedule: Q01DX010 (sc), vehicle: saline”, the T/C was 66 % of control and 159 % of control.
`COc1ccc(S(=O)(=O)N=N/C=C2\C=CC=CN2O)cc1OC`: the T/C under setting [3] was 69 % of control and 167 % of control.
For the compound `O=C(N/N=C\c1cc(Br)cc(Br)c1O)N/N=C/c1cc(Br)cc(Br)c1O`, the T/C (dose: 100.0 mg/kg/injection, schedule: Q01DX010 (sc), vehicle: saline with Tween-80) was 73 % of control and 106 % of control.
Regarding `CC[C@@]1(O)C[C@H](OC2CC(N(C)C)C(OC3CC(O)C(OC4CCC(=O)C(C)O4)C(C)O3)C(C)O2)c2c(cc3c(c2O)C(=O)c2c(O)cccc2C3=O)[C@H]1C(=O)OC` (some centres not stated), the T/C reads like this: (dose: 1.0 mg/kg/injection, schedule: Q01DX010 (ip), vehicle: water) 3 % of control and 56 % of control; (dose: 2.0 mg/kg/injection, schedule: Q01DX010 (ip), vehicle: water) -31 % of control and 39 % of control.
Take `C=CC(=O)NCNC(=O)C=C`: under “dose: 50.0 mg/kg/injection, schedule: Q01DX010 (sc), vehicle: saline”, the T/C is given as -20 % of control, 66 % of control, 73 % of control.
Consider `CC1OC(=O)C(C(C)C)NC(=O)C(C(C)C)OC(=O)C(C(C)C)NC(=O)C(C)OC(=O)C(C(C)C)NC(=O)C(C(C)C)OC(=O)C(C(C)C)NC(=O)C(C)OC(=O)C(C(C)C)NC(=O)C(C(C)C)OC(=O)C(C(C)C)NC1=O` (configuration not stated), for which the T/C is, setting by setting: (dose: 10.0 mg/kg/injection, schedule: Q01DX010 (sc), vehicle: saline with Tween-80) 9 % of control and 57 % of control; (dose: 20.0 mg/kg/injection, schedule: Q01DX010 (sc), vehicle: saline with Tween-80) 23 % of control and 77 % of control; (dose: 40.0 mg/kg/injection, schedule: Q01DX010 (sc), vehicle: saline with Tween-80) -24 % of control, 51 % of control, 58 % of control.
In the case of `O=C(O)C1Cc2nc[nH]c2CN1CO` (configuration not stated), the T/C (dose: 200.0 mg/kg/injection, schedule: Q04DX004 (sc), vehicle: saline with Tween-80) is 48 % of control and 247 % of control; the T/C (dose: 400.0 mg/kg/injection, schedule: Q04DX004 (sc), vehicle: saline with Tween-80) was 34 % of control and 156 % of control.
Regarding `COc1ccc(C(N)=O)cc1N=NN(C)C`, under “dose: 150.0 mg/kg/injection, schedule: Q04DX004 (sc), vehicle: Klucel (hydroxypropylcellulose) (HPC)”, the T/C is 18 % of control, 40 % of control, 68 % of control.
In the case of `CCOC(=O)C(CC(C)C)NC(=O)C(Cc1ccc(N(CCCl)CCCl)cc1)NC(C)=O` (configuration not stated), the T/C (dose: 25.0 mg/kg/injection, schedule: Q01DX010 (sc), vehicle: saline with Tween-80) is 75 % of control, 77 % of control, 108 % of control; the T/C (dose: 400.0 mg/kg/injection, schedule: Q01DX010 (sc), vehicle: saline with Tween-80) is 25 % of control and 81 % of control.
On to `CC1=C(C)C(=O)O[C@@H]([C@](C)(O)[C@]2(O)CC[C@@]3(O)[C@@H]4C[C@H]5O[C@]56[C@@H](O)C=CC(=O)[C@]6(C)[C@H]4CC[C@]23C)C1`, for which the T/C reads like this: (dose: 8.0 mg/kg/injection, schedule: Q01DX010 (sc), vehicle: saline) 122 % of control and 166 % of control; (dose: 16.0 mg/kg/injection, schedule: Q01DX010 (sc), vehicle: saline) 28 % of control, 50 % of control, 110 % of control; (dose: 32.0 mg/kg/injection, schedule: Q01DX010 (sc), vehicle: saline) -29 % of control, 81 % of control, 86 % of control.
`CCN(CC)CCNc1ccc(C)c2sc3ccc(O)cc3c(=O)c12`: where the note is “dose: 300.0 mg/kg/injection, schedule: Q04DX004 (sc), vehicle: saline with Tween-80”, the T/C is 70 % of control and 110 % of control.
